Measured values from PMC4336329 (PLoS ONE, 2015).
Hit rate of the full screen: of about 310,000 compounds, about 14,000 (4.5%) showed an effect of 50% or more. Effects have a minus sign here. The list shows a part of the results.

The compounds below were run against human ether-à-go-go-related gene (hERG) potassium channel (human, UniProt Q12809) (assay: primary screen, population patch clamp on CHO cells stably expressing hERG).
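Note: peak tail current of the secondary pulse compared with the same well before compound.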

Sequence of human ether-à-go-go-related gene (hERG) potassium channel (Q12809 whole entry, looked up): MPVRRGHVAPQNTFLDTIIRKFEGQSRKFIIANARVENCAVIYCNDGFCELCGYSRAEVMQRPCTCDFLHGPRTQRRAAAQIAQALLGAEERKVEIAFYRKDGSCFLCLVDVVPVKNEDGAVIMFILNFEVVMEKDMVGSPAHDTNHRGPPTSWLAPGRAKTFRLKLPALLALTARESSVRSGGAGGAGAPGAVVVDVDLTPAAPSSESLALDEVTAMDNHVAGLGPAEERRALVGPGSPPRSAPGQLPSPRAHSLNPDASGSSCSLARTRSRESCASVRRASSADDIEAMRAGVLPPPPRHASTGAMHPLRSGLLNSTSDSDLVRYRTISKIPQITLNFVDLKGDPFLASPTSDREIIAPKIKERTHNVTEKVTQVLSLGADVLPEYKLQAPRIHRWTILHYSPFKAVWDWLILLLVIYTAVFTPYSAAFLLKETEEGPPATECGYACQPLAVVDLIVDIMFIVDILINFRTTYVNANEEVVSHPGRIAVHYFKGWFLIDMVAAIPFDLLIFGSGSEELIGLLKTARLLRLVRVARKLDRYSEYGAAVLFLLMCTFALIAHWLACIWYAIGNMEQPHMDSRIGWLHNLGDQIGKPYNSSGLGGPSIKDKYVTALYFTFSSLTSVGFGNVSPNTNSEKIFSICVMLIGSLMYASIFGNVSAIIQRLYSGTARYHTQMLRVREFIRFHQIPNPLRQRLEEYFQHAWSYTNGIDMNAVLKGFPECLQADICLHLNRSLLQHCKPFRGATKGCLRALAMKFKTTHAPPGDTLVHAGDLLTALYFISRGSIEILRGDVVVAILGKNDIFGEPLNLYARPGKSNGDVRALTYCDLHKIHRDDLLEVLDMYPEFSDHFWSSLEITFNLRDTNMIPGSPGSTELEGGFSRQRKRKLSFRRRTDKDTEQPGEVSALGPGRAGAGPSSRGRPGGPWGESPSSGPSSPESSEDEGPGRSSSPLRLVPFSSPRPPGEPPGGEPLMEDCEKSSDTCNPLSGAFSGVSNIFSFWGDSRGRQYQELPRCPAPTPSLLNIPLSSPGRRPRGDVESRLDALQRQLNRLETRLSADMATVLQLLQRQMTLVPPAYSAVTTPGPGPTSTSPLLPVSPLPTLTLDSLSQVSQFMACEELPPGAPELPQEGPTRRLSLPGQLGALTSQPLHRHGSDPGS

Compound	hERG current change (%, negative = inhibition) at 10uM [%]
O=C(O)c1nn2c(C(F)(F)F)cc(-c3cccs3)nc2c1Cl	1.4
CCN(CC)c1ccc(C2C(C(=O)OCCOC)=C(C)NC3=C2C(=O)CCC3)cc1 (stereo not drawn)	-5.24
O=C(/C=C/c1cccs1)c1cc(Cl)ccc1OC(=O)N1CCOCC1	-28.1
CCC(=O)OCC(=O)c1c(N)n(Cc2ccccc2)c(=O)n(C)c1=O	0.825
CC(C)(C)C(=O)Nc1ccc(NC(=O)c2ccco2)nc1	16.5
O=C(NC(=S)N1CCN(c2ccc(C(F)(F)F)cc2[N+](=O)[O-])CC1)c1cccs1	-23.6
O=C(CNC(=O)c1ccc(F)cc1)N/N=C/c1cc(Br)ccc1OC(=O)/C=C/c1ccco1	5.01
COc1ccc([C@H]2CC(=O)C=C(c3cccc(NC(C)=O)c3)C2)cc1	-17.1
CCS(=O)(=O)Nc1ccc(C2=NN(C(=O)c3ccco3)C(c3ccc(C)cc3)C2)cc1 (stereo not drawn)	-21
CCOC(=O)c1nnn(-c2nonc2N)c1CNc1ccc(C)c(Br)c1	3.8
Cc1cc(C)cc(NC(=O)C[n+]2ccccc2)c1.[Cl-]	9.38
Cc1c(Br)cc(C(=O)O)c(C)c1C	24.1
CCCc1ccc(OCCNC(=O)C2CCCCC2)cc1	-5.33
CCC(C)[C@H](NC(=O)NCc1cccs1)C(=O)O (stereo partly drawn)	15.8
CC1=C(C(=O)OCc2ccccc2)C(c2ccc([N+](=O)[O-])cc2)NC(=O)N1 (stereo not drawn)	-10.7
CCNC(=O)CC1C(=O)N(c2ccc(C)cc2)C(=O)N1CCc1ccc(OC)c(OC)c1 (stereo not drawn)	-28
O=C(Nc1ccc(S(=O)(=O)N2CCCC2)cc1)c1ccc([N+](=O)[O-])cc1	1.68
Cc1cc(N2CCCC2)ccc1C=C(C#N)C#N	-13.2
COCCNC(=O)c1cnn2c1NC(c1ccco1)CC2C(F)(F)F (stereo not drawn)	9.9
COc1ccc(N=C(C)c2sc3ccccc3c2O)cc1	-15.1
CC1CCCCN1CCNS(=O)(=O)c1ccc2c(c1)oc(=O)n2C (stereo not drawn)	23.5
N/C(Cc1nc(-c2ccc(Br)cc2)cs1)=N\O	11.3

Compound	hERG current change (%, negative = inhibition) at 10uM [%]
COc1ccc(-c2cc(C(F)(F)F)nc(SCc3cccc(C(=O)O)c3)n2)cc1	14.1
COc1cccc(N2C(=NC(=O)c3ccccc3)SC3CS(=O)(=O)CC32)c1 (stereo not drawn)	3.44
COc1ccc(OC)c(NC(=O)COc2ccc(Br)cc2)c1	13
Cc1cc(F)ccc1S(=O)(=O)Nc1ccccc1C(=O)NCc1cccnc1	-18.7
CCC(=O)N1CCN(c2nc3ccc(Br)cc3s2)CC1	-44.2
Cc1ccc(C(=O)N2CC(C)CC(C)C2)cc1NC1=NC2CS(=O)(=O)CC2S1 (stereo not drawn)	19.9
O=C(Cc1c(F)cccc1Cl)c1ccc(O)cc1O	3.62
COc1ccc2c(c1)c(C(=O)CN1CCN(c3ccccc3)CC1)c(C)n2C	-45.1
Cc1cc(C)cc(OCC(=O)Nc2ccc(F)cc2)c1	14.7
Cc1ccc(C)n1-c1ccc(-c2nnco2)cc1	8.42
COc1ccc(CCN(C)C2CCCN(C(=O)c3ccnn3C)C2)cc1OC (stereo not drawn)	-21.1
C/C=C/c1ccc(OCC(=O)Nc2cc(Cl)ccc2-n2cncn2)c(OC)c1	-29.5
O=C(CN1C(=O)NC2(CCCc3ccccc32)C1=O)N1CCc2ccccc2C1 (stereo not drawn)	-17.3
Cc1ccccc1NC(=O)c1cccc(N2C(=O)C3C4CC(C(Br)C4Br)C3C2=O)c1 (stereo not drawn)	14.4
O=C(Cc1ccc(Br)cc1)NCCCn1ccnc1	-5.49
COc1ccc(/C(C)=N/NC(=O)CNC(=O)c2cccnc2)cc1	12.5
CCSc1nnc(NC(=O)CSc2nc3c(c(=O)n2C)SC(C)C3)s1 (stereo not drawn)	-11.5
O=C(COC(=O)c1ccc(Br)cc1)NC(=O)NCc1ccccc1	-7.46
O=C(c1ccco1)N(CC1CCCO1)c1nc(-c2ccccc2)cs1 (stereo not drawn)	2.22
COc1cc(CNCCc2ccccc2)ccc1OCC(=O)NC(C)(C)C.Cl	-5.07
Cc1noc(C(=O)Nc2c(C)n(C)n(-c3ccccc3)c2=O)c1Cl	2.02
COc1ccccc1NS(=O)(=O)c1cc(NC(=O)C2CC2)ccc1N1CCOCC1	45.4

Compound	hERG current change (%, negative = inhibition) at 10uM [%]
CCN(CC)CCN(C(=O)Cn1nnc(-c2ccc(C)o2)n1)C(C(=O)NC(C)(C)C)c1cccs1 (stereo not drawn)	-41.6
Cc1cc(C)cc(NC(=O)CSc2n[nH]c(-c3cccnc3)n2)c1	-9.91
O=C(O)CCCCCNc1nc2ncn(Cc3ccccc3)c2c(=O)[nH]1	3.46
Cc1ccc(Cn2nc(C(=O)Nc3ccc(Br)cc3)cc2C)cc1	13.2
CCOc1c(C(N)=O)c(-c2ccccc2)c2c(=O)[nH]c3ccccc3n12	19.5
CCN(CC)S(=O)(=O)c1ccc(-c2nnco2)cc1	-3.59
COc1ccc(CCN(C)C(=O)CN2C(=O)c3ccccc3S2(=O)=O)cc1OC	4.1
COc1ccc(OCC(=O)Nc2cccc(NC(=O)c3ccco3)c2)cc1	-11.3
COc1ccccc1C1=NNC(=Nc2cccc(S(=O)(=O)N(C)C)c2)SC1	-7.3
Cc1ccc(NS(=O)(=O)c2ccc(NC(=O)c3ccccc3C(=O)O)cc2)c(C)c1	10.8
CC(C)NC(=S)NC(=O)/C=C/c1cccc2ccccc12	14.1
Cc1cnc2ncc3sccc3c2c1	13.1
O=C(c1ccc(-c2ccc([N+](=O)[O-])cc2)o1)N1CCCC(C(F)(F)F)C1 (stereo not drawn)	-17
Cc1cc(C)cc(NC(=S)N2CCN(S(C)(=O)=O)CC2)c1	4.55
CCCn1c(SCC(=O)NC2CC2)nnc1-c1cccs1	-0.0347
Cc1cc(NC(=O)COC(=O)C2CC(=O)N(c3ccc(Br)cc3)C2)no1 (stereo not drawn)	-14.6
O=C(C1CCN(S(=O)(=O)c2ccc(Br)s2)CC1)N1CCc2ccccc21	-46.8
Cc1ccc(-n2ncc(C(=O)NCC3CCN(C4CCCC4)C3)c2C2CCN(C(=O)OC(C)(C)C)CC2)cc1C (stereo not drawn)	6.57
COc1ccccc1N1CCN(S(=O)(=O)c2cc(C)sc2C)CC1	-6.36
Cc1ccc(S(=O)(=O)N(CC(=O)Nc2ccccc2C(=O)O)c2ccccc2)cc1	23.9
COC(=O)CC1C(=O)NCCN1C(=O)c1ccc([N+](=O)[O-])cc1 (stereo not drawn)	9.64
Cc1ccc2nc3c(cc2c1)CC1(C(=O)N(C)C(=O)N(C)C1=O)C1CCCCN31 (stereo not drawn)	-13.5

Compound	hERG current change (%, negative = inhibition) at 10uM [%]
COc1cccc(NC(=O)COC(=O)CNC(=O)C2CCCCC2)c1	9.89
Cc1noc(C)c1CSCC(=O)NC1=NCCS1	6.86
O=C(N/N=C/c1ccco1)c1cc(-c2ccc(Br)s2)[nH]n1	4.07
O=C(CN1CCN(C(=O)C2COc3ccccc3O2)CC1)Nc1ccccc1 (stereo not drawn)	-66.2
CC1(OC(=O)CCc2ccccc2)C(=O)C=C2C=C(c3ccc(C#N)cc3)N(C3CC3)C=C2C1=O (stereo not drawn)	-51.7
CC(C)Nc1nnc(SCC(=O)Nc2ccc(F)cc2)s1	-0.0817
Nc1nonc1-n1nnc(C(=O)N/N=C/c2cccs2)c1CSc1ccccc1	22.8
O=C1CCCN1CCCNS(=O)(=O)c1cccc(F)c1	25.9
C=Cc1ccc(Cn2nc(-c3ccc(C)cc3)ccc2=O)cc1	16.3
O=C(CN1C(=O)C2CC=CCC2C1=O)Nc1nnc(C2CC2)s1 (stereo not drawn)	6.01
CCSc1ncc(Cl)c(C(=O)Nc2ccc(S(=O)(=O)Nc3ncccn3)cc2)n1	2.44
C/C(=N\NC(=O)c1ccc(N2CCCC2=O)cc1)c1ccccc1	10.5
C[C@@H]1NC(=O)c2cc([N+](=O)[O-])cc(I)c2NCC[C@@H](C(N)=O)NC(=O)[C@H](CC(N)=O)NC1=O	11.2
Cc1cc(O)c(C(=O)/C=C/c2ccc(Cl)cc2)c(=O)o1	23.2
O=C(NCCN1CCOCC1)C1CC(=O)N(c2ccc(F)cc2)C1 (stereo not drawn)	-8.03
CC(=O)OC(C(=O)NCc1ccc(F)cc1)c1ccccn1 (stereo not drawn)	4.52
CN(Cc1ccccc1)C(=O)CN(c1ccc(F)cc1)S(=O)(=O)c1ccc2c(c1)OCCO2	-18.6
O=C(NCCc1nc2ccccc2[nH]1)c1ccc(Br)o1	3.87
FC(F)(F)c1ccccc1/C=N/n1c(COc2ccccc2)n[nH]c1=S	20.9
CCOc1ccc(N(CC(=O)NCc2ccc(F)cc2)C(=O)c2snc(C(N)=O)c2N)cc1	6.64
CCN1CCN(c2c(Cl)cccc2NC(=O)c2ccc(Br)o2)CC1	-73.6
